44 sequences from the supplement of paper PMC11417369 can be followed below.

This is one part of the list.

The assay deals with PfHDP1 homeodomain (GST-tagged). Kind of assay: gcPBM binding intensity (ln(normalized median fluorescence intensity)); higher = stronger DNA binding. Put shortly: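 Probes on an Agilent 4 × 180k array were primer-extended, double-stranded and 36 bp long, taken from intergenic genomic regions, with negative controls added. GST-tagged P. falciparum DNA-binding domains from E. coli, about 25 μg on average, were applied to the array for 1 h in 1× PBS containing 1% milk, 0.2 mg/ml BSA, 0.5% salmon testes DNA and 0.03% Triton X-100. Binding intensity, obtained after Alexa488 anti-GST antibody detection and a 488 nm scan, is the highest Masliner-normalised natural-log median intensity across replicate spots of either probe orientation.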
For “AAATGAATAAAATTTATTTATAAAAGAAAAATCACA [GTGCAC_negctrl_site225]”, the “gcPBM binding intensity (ln)” value is 6.43.
On to “AGTGTGTGTGCGTATAGTACATATACATATATACAC [XGTACX_site6882]”, for which the “gcPBM binding intensity (ln)” value is 6.87.
With “ATAATACAAAATACATGTACAAATATTTTTCATATT [XGTACX_site1721]”, the “gcPBM binding intensity (ln)” value is 6.43.
With “TGTGCACGCATATACACACACAAATACAATGATAAA [CACACA_site6656]” the figure was 9.39; with “AACGGGGCCAAGAAATATAAATAATCAAAACAAAAA [XGTACX_negctrl_site320]”, 6.32.
Regarding “TTTCTTTATTTTTTTTTTTTTTTTTTTCCTTTTTTT [TGCATGCA_negctrl_site231]”, the “gcPBM binding intensity (ln)” value was 5.98.
With “TGTTATATTTGTGCGTGTACACATTTGAAAAAATAT [XGTACX_site3796]”, the “gcPBM binding intensity (ln)” value was found to be 7.25.
With “GTTCTTTCAAGTTATACACACCAAAAAAAAAAAAAA [CACACA_site7435]” the figure was 6.52.
With “AATATCATCAAACGCACACATACATAAATATATTAT [CACACA_site2174]”, the “gcPBM binding intensity (ln)” value worked out at 7.74.
With “TATTTATATAGACACACACACATATATTTATATTTT [CACACA_site7240]” the figure was 6.72; with “ACTTAAATAATACATACACACATGTACATACAGAAA [CACACA_site1595]”, 7.03; with “TTTACATTTAATAAAAGTACTTATTTCATATACATA [XGTACX_site659]”, 6.34.
With “AAGGAAAAACCATTCGCACACACACCGAATATATAA [CACACA_site8403]” the figure was 6.87; with “TATATCAAATTCTAAACATGCACAAAAAACTTATAA [TGCATGCA_site510]”, 8.27; with “ATACCAATAATATACATACACACATAAAGGTTTATA [CACACA_site314]”, 6.65.
As to “AAGAAAAACTAAAGAGTTCTGTTCATATCTCTTTGG [TGCATGCA_negctrl_site549]”, the “gcPBM binding intensity (ln)” value was determined as 5.77.
As for “TAATTCTTTATAATAACACACATTCATATACAATAA [CACACA_site2499]”, the “gcPBM binding intensity (ln)” value was found to be 6.63.
Turning to “GGTATTACCTGTTTGTTATGTAGATGTTGCTAGGAT [GTGCAC_negctrl_site736]”, the “gcPBM binding intensity (ln)” value was found to be 6.92.
As for “AATATACACCCGTGTACACAAATATTTACAAAACGT [CACACA_site4786]”, the “gcPBM binding intensity (ln)” value turned out to be 7.13.
Regarding “AAAAGGAATGAAAATTCACACAACTATAAATACATA [CACACA_site5337]”, the “gcPBM binding intensity (ln)” value amounted to 6.34.
Consider “GTTACACCAACAAACACACACACACCCACCCACAAA [CACACA_site2427]”, for which the “gcPBM binding intensity (ln)” value worked out at 7.42.
Turning to “AATTTAAAGTTTTTTTTTTTTTTTTTTTTTTTTTTG [CACACA_negctrl_site1082]”, the “gcPBM binding intensity (ln)” value came out at 5.92.
With “TGTATTATAATATTATGTACTTATAAATTTTATATT [XGTACX_site6432]”, the “gcPBM binding intensity (ln)” value came to 6.5.
As to “ATATTATTATAAAGTGGTACAATAAATGGTATTATA [XGTACX_site391]”, the “gcPBM binding intensity (ln)” value was 6.23.
Turning to “TGGGTGGTAAAAATGTGTACATAAAAAAATAATGTT [XGTACX_site2235]”, the “gcPBM binding intensity (ln)” value is 7.11.
As to “TCTCACATTCTTATGGGTACACATGAGAAATTATAA [XGTACX_site6799]”, the “gcPBM binding intensity (ln)” value stood at 6.45.
Turning to “TTATTGGTTATATAAAGTACATTTGAAATATAATTG [XGTACX_site6553]”, the “gcPBM binding intensity (ln)” value amounted to 6.07.
Regarding “ATAATAATTTTATGCACACAGAAAAATACAAGGTTA [CACACA_site3510]”, the “gcPBM binding intensity (ln)” value was 10.1.
Consider “TTTTCTTGGTATATGATTTATCCTAAATAAGTAAAT [CACACA_negctrl_site294]”, for which the “gcPBM binding intensity (ln)” value worked out at 6.22.
“TTGCCTGACTTGTTCACACATATTTATGATATACAT [CACACA_site5783]”: the “gcPBM binding intensity (ln)” value stood at 6.56.
On to “TTAGAATTTAGAGAAGTGCATATTAAGTTACGAATT [GTGCAC_site9861]”, for which the “gcPBM binding intensity (ln)” value stood at 8.56.
Turning to “AAAAAAAATATATATATTAAAGTTTTAATTTTTATA [CACACA_negctrl_site497]”, the “gcPBM binding intensity (ln)” value stood at 6.14.
Regarding “ATTATATATATATATAGTACTTTTTTTTTTTTTTTT [XGTACX_site8801]”, the “gcPBM binding intensity (ln)” value came out at 6.41.
Take “TATATATATGGGTTTACACACAATAATGAATTAAAA [CACACA_site915]”: the “gcPBM binding intensity (ln)” value was 6.34.
In the case of “CCCATGCATTTTTGCACACACATATATTTATAAATA [CACACA_site6785]”, the “gcPBM binding intensity (ln)” value was 10.7.
On to “CCCACAGACGGACACACACACACATATATATATATA [CACACA_site4352]”, for which the “gcPBM binding intensity (ln)” value turned out to be 9.18.
Take “TCAAGTTTATATTAACTATTTATGAAAAAAAAAAGA [CACACA_negctrl_site902]”: the “gcPBM binding intensity (ln)” value turned out to be 6.32.
Take TATAAGGCAATAATAGTGCACTAAGATATATAATGA: the “gcPBM binding intensity (ln)” value amounted to 10.7.
Take “ATATATTACAAATGGAGTACTAAAAATATTCTATAT [XGTACX_site6669]”: the “gcPBM binding intensity (ln)” value came out at 6.67.
Regarding “CTAAAAATTTTAATTGCACACCACGTTGGACTATTT [CACACA_site1489]”, the “gcPBM binding intensity (ln)” value came out at 9.83.
With “TTACACTAAATATGTTCACACATTTTTTCCATCATA [CACACA_site4647]” the figure was 6.59; with “TACAAAAGTTAAACATGTACTTAATTATATGTTTTT [XGTACX_site2852]”, 6.12; with “ATAAAAATGGATGAATATAAAAAAAAAAAAATATAT [CACACA_negctrl_site182]”, 6.63.
With “GAATATATAAGAACAAATATGGCTTAGAAAAAAAAA [TGCATGCA_negctrl_site451]” the figure was 6.05.
